# Measured values from PubChem BioAssay AID504832 (National Center for Advancing Translational Sciences (NCATS), 2011).
# Out of some 310,000 compounds screened, about 18,000 (5.8%) were called active. The shares of active, inactive and inconclusive entries below differ from those in the screen. Calls follow the shape of the dose curve; as a rule, active = well fitted inhibition curve with a large enough effect; inconclusive = small, poorly fitted or top-dose-only effect, or another doubt; inactive = no such curve, though single readings can be large or run the other way. Potencies of inconclusive entries are left out as doubtful fits.
# Assay: Primary qHTS for delayed death inhibitors of the malarial parasite plastid, 48 hour incubation
# Conditions: P. falciparum luciferase growth in erythrocytes; series mostly up to 28.7 µM; activity change, negative = inhibition: at the top concentration
# How it was run: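 A one-generation exposure of luciferase-tagged malaria parasites in RPMI 1640/Albumax erythrocyte culture, 37 C and 5% CO2. Inhibition is inferred from decreased luminescence after adding detection reagent.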
# % is scaled to controls: 0 for no effect and ±100 for the full control effect; potency is read from the fitted curve at half-maximal effect; tags tell the direction and shape of the fitted curve.
Compound,Potency,"activity change, negative = inhibition"
O=[N+]([O-])c1cccc(/C=C2\CCC(/C=N/Nc3ccc4ccccc4n3)=C2N2CCOCC2)c1,"inconclusive [inhibitor, full curve, poor fit]",–
COC(=O)c1cc2c(ccn2-c2ccc(F)cc2)n1CC(=O)N1CCN(C(=O)c2ccco2)CC1,"inconclusive [inhibitor, single point]",–
C=CCn1c(=O)c(C(C)=O)cn(N(C)c2ncc(C(F)(F)F)cc2Cl)c1=O,"inconclusive [inhibitor, single point]",–
S=C(Nc1ccccc1Cl)N(Cc1cccnc1)Cc1ccco1,active: 4.15 µM,–
CCCCNC(=S)Nc1ccc(SC(F)F)cc1,"inconclusive [inhibitor, partial curve, poor fit]",–
CCOc1ccccc1N1CCN(C(=O)c2ccccc2SCC(=O)N2CCCC2)CC1,"inconclusive [inhibitor, single point]",–
CCC(C)NC(=O)Cn1c(-c2ccccc2)cc(C(C)=O)c1C (centres undefined),–,inactive: 23.7%
Cc1cc(C)cc(N2CCCn3c2nc2c3c(=O)n(CC(=O)OCc3ccccc3)c(=O)n2C)c1,"inconclusive [inhibitor, partial curve, poor fit]",–
COc1cc(C2CC(=O)Oc3c(C(CCN4CCN(c5ccccc5)CC4)c4ccc(N(C)C)cc4)c(OC)cc(OC)c32)cc(OC)c1OC (centres undefined),active: 4.15 µM,–
COc1ccc(C(=O)NC2CCN(C(=S)NCc3ccco3)CC2)cc1,"inconclusive [inhibitor, single point]",–
Cc1cc(Br)c2c(c1)/C(=C/C(=O)c1cccs1)C(=O)N2,–,inactive: -25.1%
O=C(Oc1ccc(/C=N/Nc2ccccc2)cc1)c1ccccc1,"inconclusive [inhibitor, single point]",–
c1ccc(C(c2ccccc2)N2CCN(Cc3nc(-c4cnccn4)no3)CC2)cc1,"inconclusive [inhibitor, single point]",–
CCOC(=O)c1sc(NC(=O)CCc2ccccc2)nc1C,–,inactive: 38.2%
COc1ccc(CNC(=O)COC(=O)CCn2c(C)csc2=O)cc1OC,"inconclusive [inhibitor, full curve, poor fit]",–
CCN1C(=O)[C@@H]2C(C(=O)c3cnccn3)=NN[C@@H]2C1=O,–,inactive: 13.5%
CN1C(=O)C(O)(CC(=O)c2ccc(F)cc2)c2cc(Br)ccc21 (centres undefined),"inconclusive [inhibitor, partial curve]",–
O=C(C/C=N\OCc1ccc([N+](=O)[O-])cc1)Nc1ccc(Cl)cc1,–,inactive: -2.5%
COc1cc(C(=O)NCc2cc3cc(Cl)ccc3n2C)cc(OC)c1OC,"inconclusive [inhibitor, single point]",–
